# Measurements reported in PubChem BioAssay AID504332 (National Center for Advancing Translational Sciences (NCATS), 2011).
# Screen size: about 350,000 compounds; about 31,000 (8.9%) were called active. This list was built around the results that the source calls inconclusive (neither active nor inactive); the mix of calls is not that of the screen. The call rests on the fitted dose curve; in most records, active means well fitted inhibition curve with a large enough effect; inconclusive means small, poorly fitted or top-dose-only effect; inactive means no such curve, though single readings can be large or run the other way. Where the call is inconclusive, the potency comes from a doubtful curve fit.
# Target: Histone-lysine N-methyltransferase EHMT2 (Homo sapiens) (UniProt Q96KQ7)
# Test: qHTS Assay for Inhibitors of Histone Lysine Methyltransferase G9a; further: nearly all actives have a fitted effect of over 75% in size
# Details: G9a H3K9 monomethylation, AlphaScreen, 2 h; activity, negative = inhibition: at 59 µM (top of the series) unless noted
# Summary of the method: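 AlphaScreen detection with an anti-monomethyl H3K9 antibody quantified product after a 2 h room-temperature reaction containing 500 nM biotinylated H3K9 peptide, 20 µM SAM and 20 nM enzyme, which had been preincubated 15 min with compound.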
# On the % scale 0 is the no-effect control and ±100 the full control effect; potency means the concentration at half of the fitted maximal effect; tags describe the fitted curve by direction and shape.
# UniProt Q96KQ7, sequence (Q96KQ7 whole entry, looked up): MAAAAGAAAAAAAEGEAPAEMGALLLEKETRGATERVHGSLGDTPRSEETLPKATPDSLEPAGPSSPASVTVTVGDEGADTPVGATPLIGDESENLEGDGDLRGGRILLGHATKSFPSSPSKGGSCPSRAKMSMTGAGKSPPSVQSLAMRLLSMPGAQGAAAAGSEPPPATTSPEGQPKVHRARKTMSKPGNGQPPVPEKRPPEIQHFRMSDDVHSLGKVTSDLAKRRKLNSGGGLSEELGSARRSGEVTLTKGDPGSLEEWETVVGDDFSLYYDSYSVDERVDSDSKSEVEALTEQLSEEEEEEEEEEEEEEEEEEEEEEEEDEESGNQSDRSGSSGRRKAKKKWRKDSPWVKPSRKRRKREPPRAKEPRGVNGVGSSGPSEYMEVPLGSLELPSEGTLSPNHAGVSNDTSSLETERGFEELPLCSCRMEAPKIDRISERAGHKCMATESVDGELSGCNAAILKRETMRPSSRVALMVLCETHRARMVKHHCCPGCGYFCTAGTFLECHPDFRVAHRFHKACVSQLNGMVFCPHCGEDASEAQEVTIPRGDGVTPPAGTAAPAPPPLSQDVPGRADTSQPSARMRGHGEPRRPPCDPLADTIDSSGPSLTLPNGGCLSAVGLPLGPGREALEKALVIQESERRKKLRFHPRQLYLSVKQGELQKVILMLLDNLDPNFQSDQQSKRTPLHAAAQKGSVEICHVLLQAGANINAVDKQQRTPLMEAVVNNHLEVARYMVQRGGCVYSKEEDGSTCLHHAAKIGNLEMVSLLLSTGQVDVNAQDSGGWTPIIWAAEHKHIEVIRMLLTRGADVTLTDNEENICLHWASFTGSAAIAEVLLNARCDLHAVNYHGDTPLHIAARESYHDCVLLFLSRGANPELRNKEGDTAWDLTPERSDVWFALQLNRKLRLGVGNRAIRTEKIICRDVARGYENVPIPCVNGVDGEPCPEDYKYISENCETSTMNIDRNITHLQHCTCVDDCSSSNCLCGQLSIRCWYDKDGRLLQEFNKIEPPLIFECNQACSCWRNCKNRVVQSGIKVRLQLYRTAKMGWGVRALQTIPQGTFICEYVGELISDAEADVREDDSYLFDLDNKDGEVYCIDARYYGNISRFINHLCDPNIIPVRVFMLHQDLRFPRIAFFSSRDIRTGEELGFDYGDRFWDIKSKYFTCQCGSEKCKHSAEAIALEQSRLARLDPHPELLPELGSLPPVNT
Compound,"activity, negative = inhibition",Potency
Cc1ccc(C2/C(=C(/O)c3ccccc3)C(=O)C(=O)N2CCN2CCOCC2)o1 (stereo not drawn),inconclusive: -75.7% [inhibitor],–
COC(=O)CCC(=O)NC(=S)Nc1ccc(S(=O)(=O)N2CCCC2)cc1,–,"inconclusive: 89.1 µM [inhibitor, single point]"
NC(=O)COc1ccc(-n2cnnn2)cc1,–,"inconclusive: 50.1 µM [inhibitor, partial curve, poor fit]"
COc1cccc(CNC(=O)Cc2csc(NC(=O)Nc3ccccc3OC)n2)c1,–,"inconclusive: 79.4 µM [inhibitor, partial curve]"
COc1cc(-n2c(N)c(C(=O)NCc3ccco3)c3nc4ccccc4nc32)cc(OC)c1OC,–,"inconclusive: 89.1 µM [inhibitor, single point]"
CC1(C)CC(Nc2ccc(Nc3ccccc3)cc2)CC(C)(C)N1,–,"inconclusive: 7.08 µM [inhibitor, single point]"
C/C(=N/NC(=O)c1ccc(C)s1)c1ccncc1,–,inactive
COc1ccc(-c2nc(CS(=O)(=O)CC(=O)NCc3ccccc3OC)c(C)o2)cc1,–,"inconclusive: 89.1 µM [inhibitor, single point]"
O=C(O)CSC1CC(=O)N(c2ccc(Cl)c(Cl)c2)C1=O (stereo not drawn),inconclusive: -88.4% [inhibitor],–
CCOc1ccccc1CN1CCNC(=O)C1CC(=O)NCCCn1cccn1 (stereo not drawn),–,active: 79.4 µM
O=C1N=c2ccc([N+](=O)[O-])cc2=C1c1sc(=O)[nH]c1O,–,"inconclusive: 89.1 µM [inhibitor, single point]"
COc1ccc(CCNC(=O)CSc2cn(CCNC(=O)c3cccc(C(F)(F)F)c3)c3ccccc23)cc1OC,–,inactive
COC(=O)c1sc(S(=O)(=O)Nc2ccc3cn[nH]c3c2)c(C(=O)OC)c1C,inconclusive: -54.3% [inhibitor],–
Cc1ccc(C(=O)N2CCN(C)CC2)cc1S(=O)(=O)N1CCCCC1,–,"inconclusive: 25.1 µM [inhibitor, single point]"
CC1CCc2c(sc(NC(=O)c3cc(-c4cccc(Cl)c4)on3)c2C(N)=O)C1 (stereo not drawn),–,inactive
CCOC(=O)C1=C(C)N(Cc2ccc(C(=O)O)cc2)C(=O)NC1c1ccc([N+](=O)[O-])cc1 (stereo not drawn),–,"inconclusive: 79.4 µM [inhibitor, single point]"
CCOc1ccc(-c2cn(-c3ccc(C)cc3)c(SCC(=O)Nc3ccc(C)cc3)n2)cc1,–,"inconclusive: 15.8 µM [inhibitor, partial curve, poor fit]"
O=C(O)c1c(Cl)c(Cl)c(Cl)c(Cl)c1C(=O)N1CCCC1,–,"inconclusive: 2.82 µM [inhibitor, partial curve, poor fit]"
CCC(C)[C@H](N)c1nnc(SCc2cccc(F)c2)o1 (stereo partly drawn),–,"inconclusive: 6.31 µM [inhibitor, single point]"
COc1cccc(CNC(=O)C(C)n2ncn3cccc3c2=O)c1OC (stereo not drawn),–,"inconclusive: 35.5 µM [inhibitor, single point]"
COc1ccc(C2CC(c3ccc(OC)cc3O)=NN2C(=O)c2ccccc2)cc1 (stereo not drawn),–,"inconclusive: 50.1 µM [inhibitor, partial curve]"
O=C(Cn1c2ncccc2c(=O)n1-c1ccccc1)NCc1ccccc1Cl,–,inactive

Compound,"activity, negative = inhibition",Potency
O=C(Nc1ccc(S(=O)(=O)N2CCCCC2)cc1)C1CC(=O)N(Cc2ccccc2)C1 (stereo not drawn),–,"inconclusive: 89.1 µM [inhibitor, single point]"
CN1CCc2nc(SCC(=O)Nc3ccc(F)cc3)c(C#N)cc2C1,–,active: 6.31 µM
CCOC(=O)c1sc(=S)n(Cc2ccccc2)c1N,–,"inconclusive: 22.4 µM [inhibitor, single point]"
O=C(NCC(c1ccco1)N1CCCC1)c1sc2ccccc2c1Cl (stereo not drawn),–,"inconclusive: 89.1 µM [inhibitor, single point]"
Nc1c2c(nc3ccn(-c4ccccc4)c(=O)c13)CCCCC2,–,"inconclusive: 89.1 µM [inhibitor, single point]"
Fc1ccc(-c2ccc(CNCCSc3nnnn3-c3ccccc3)o2)cc1,–,active: 12.6 µM
COc1c2ccoc2nc2c(OC)cccc12,–,"inconclusive: 28.2 µM [inhibitor, single point]"
COc1ccc(N=NC2C(=O)N(c3ccccc3)N=C2C)cc1 (stereo not drawn),inconclusive: -70.8% [inhibitor] [at 2.33 µM],–
O=C(O)c1nn2c(C(F)(F)F)cc(-c3cccs3)nc2c1Cl,–,inactive
Cc1nc(C)c(-c2csc(Nc3ccc(O)c(C(=O)O)c3)n2)s1,–,active: 79.4 µM
O=C(C1CCC(Cn2c(=S)[nH]c3ccccc3c2=O)CC1)N1CCOCC1 (stereo not drawn),–,"inconclusive: 39.8 µM [inhibitor, single point]"
CNCc1ccccc1Sc1ccc(O)c(O)c1,–,active: 12.6 µM
OC(CN1CCN(Cc2ccccc2)CC1)Cn1c2ccccc2c2ccccc21 (stereo not drawn),–,"inconclusive: 39.8 µM [inhibitor, single point]"
O=C(NCc1n[nH]c(=S)n1-c1ccc([N+](=O)[O-])cc1)c1ccc(S(=O)(=O)N2CCOCC2)cc1,–,active: 7.08 µM
O=C1CC(c2cccc(Cl)c2)CC(O)=C1C=Nc1ccccc1 (stereo not drawn),–,inactive
Cc1c(N=Cc2ccc(O)c(Br)c2)cccc1[N+](=O)[O-],–,"inconclusive: 70.8 µM [inhibitor, single point]"
CCCCOC(=O)Nc1ccc(C(C)C)cc1,–,inactive
COc1ccc(CC(=O)Nc2ccc(N3CCN(c4ccc(OC)cc4)CC3)c(C#N)c2)cc1,–,"inconclusive: 1.26 µM [inhibitor, partial curve, poor fit]"
COc1cccc(CNc2ccc([N+](=O)[O-])cc2Cl)c1O,–,"inconclusive: 56.2 µM [inhibitor, partial curve, poor fit]"
Cc1cccc(NC(=S)N(CCCN2CCOCC2)Cc2cn(C)c3ccccc23)c1,–,"inconclusive: 79.4 µM [inhibitor, partial curve, poor fit]"
Cc1ccc(-n2c(C)cc(/C=N\NC(=O)CC(=O)NC(C)C)c2C)cc1,–,"inconclusive: 3.16 µM [inhibitor, partial curve, poor fit]"
